Assay results: publication PMC4336329 (PLoS ONE, 2015)
The campaign covered roughly 310,000 compounds. About 14,000 (4.5%) showed an effect of 50% or more. Effects have a minus sign here. The list shows a part of the results.

Biological target: human ether-à-go-go-related gene (hERG) potassium channel (human, UniProt Q12809)
Test: primary screen, population patch clamp on CHO cells stably expressing hERG
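Further: peak tail current of the secondary pulse compared with the same well before compound.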

Chain of human ether-à-go-go-related gene (hERG) potassium channel (Q12809 whole entry, looked up): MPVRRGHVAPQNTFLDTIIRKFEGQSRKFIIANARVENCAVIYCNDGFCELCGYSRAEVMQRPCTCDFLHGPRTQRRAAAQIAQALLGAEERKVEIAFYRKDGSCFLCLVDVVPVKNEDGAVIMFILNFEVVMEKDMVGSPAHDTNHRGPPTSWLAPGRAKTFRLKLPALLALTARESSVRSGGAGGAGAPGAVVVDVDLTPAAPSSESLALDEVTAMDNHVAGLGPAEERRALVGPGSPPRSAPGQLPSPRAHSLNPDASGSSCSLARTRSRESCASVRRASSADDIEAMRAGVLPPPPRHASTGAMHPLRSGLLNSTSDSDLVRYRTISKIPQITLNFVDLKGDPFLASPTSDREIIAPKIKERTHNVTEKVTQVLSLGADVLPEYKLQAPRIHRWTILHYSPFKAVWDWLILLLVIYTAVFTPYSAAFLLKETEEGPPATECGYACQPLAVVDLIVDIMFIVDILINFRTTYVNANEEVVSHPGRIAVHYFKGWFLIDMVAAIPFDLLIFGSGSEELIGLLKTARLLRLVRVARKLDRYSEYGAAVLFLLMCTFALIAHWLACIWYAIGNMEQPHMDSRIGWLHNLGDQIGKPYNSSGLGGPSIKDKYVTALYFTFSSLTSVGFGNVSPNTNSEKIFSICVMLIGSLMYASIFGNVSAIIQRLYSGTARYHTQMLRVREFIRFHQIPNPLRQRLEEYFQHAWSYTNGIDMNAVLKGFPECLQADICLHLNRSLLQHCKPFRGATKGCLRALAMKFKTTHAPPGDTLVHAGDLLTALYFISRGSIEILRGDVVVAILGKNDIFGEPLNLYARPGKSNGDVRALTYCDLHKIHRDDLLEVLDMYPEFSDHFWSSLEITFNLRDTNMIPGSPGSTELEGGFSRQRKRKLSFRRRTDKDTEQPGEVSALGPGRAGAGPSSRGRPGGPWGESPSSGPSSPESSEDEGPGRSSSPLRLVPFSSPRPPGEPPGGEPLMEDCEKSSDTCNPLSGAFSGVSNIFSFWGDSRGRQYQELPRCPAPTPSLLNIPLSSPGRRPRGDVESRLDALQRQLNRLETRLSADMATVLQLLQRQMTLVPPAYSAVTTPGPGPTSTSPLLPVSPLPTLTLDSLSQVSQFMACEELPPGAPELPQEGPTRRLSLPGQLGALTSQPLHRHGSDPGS

Structure (SMILES) | hERG current change (%, negative = inhibition) at 10uM [%]
CSc1ccccc1NC(=O)c1ccc(N2CCCC2=O)cc1 | -16.3
CN1C(=O)Cc2cc(S(=O)(=O)N3CCN(c4cccc(C(F)(F)F)c4)CC3)ccc21 | 13.7
COc1ccc(N(CC(=O)NCc2ccccc2C)S(=O)(=O)c2ccccc2[N+](=O)[O-])c(OC)c1 | -6.94
CN1CCN(c2nc3ccccn3c(=O)c2/C=C(\C#N)S(=O)(=O)c2ccccc2)CC1 | -24.9
COc1cccc(NC(=O)C2CC(=O)N(Cc3ccco3)C2)c1 (centres unmarked) | 0.0564
Cc1nc2ccccc2c(=O)n1/N=C/c1ccc(N(C)C)cc1 | 5.95
CC1=C[C@H](C)[C@H](c2c(F)cccc2Cl)CC1=O | 6.22
CC1SCC(=NOCc2c(Cl)cccc2Cl)CS1 (centres unmarked) | 17.3
COc1ccc([N+](=O)[O-])cc1NC(=O)c1ccccc1SC | -16.6
O=C(CN(Cc1ccc(Cl)cc1)C(=O)c1csnn1)NCc1ccccc1 | -56.7
Nc1nc(F)cc(NCc2ccccc2)n1 | -1.04
Cc1cc2nc(-c3ccc(SCC(=O)Nc4ccc(S(=O)(=O)NC5CC5)cc4)nc3)[nH]c2cc1C | 6.68
COc1cc2c(cc1NC(C)=O)CCCC2 | 14.2
COc1ccc(C(=O)NCCc2nnc(SCC(=O)Nc3ccccc3F)n2C)cc1 | -7.59
COc1ccc(C(=O)Nn2c(C)ccc2C)cc1OC | 1.55
O=C(Nc1ccc2nc3n(c(=O)c2c1)CCCC3)c1cncc(Br)c1 | -43.2
NC(=O)c1nsc(C(=O)N(c2ccc(F)cc2)C(C(=O)NCC2CCCO2)c2c[nH]c3ccccc23)c1N (centres unmarked) | -2.38
O=C(Oc1ccc2cccc(OC(=O)N3CCOCC3)c2c1)N1CCOCC1 | 16.7
COc1coc(C(O)C[N+](=O)[O-])cc1=O (centres unmarked) | -4.85

Structure (SMILES) | hERG current change (%, negative = inhibition) at 10uM [%]
CCN1CCN(C(=O)C2(NC(=O)Nc3cccc(F)c3)CCCCC2)CC1 | 4.94
COc1cccc(C(=O)Nc2cc(C(F)(F)F)ccc2Cl)c1 | 4.29
CCCCCCCN1C(Nc2ccccc2)=NC[C@@H]1C | -68
COc1cccc(Cn2c(NCc3cccnc3)nc3c2c(=O)n(C)c(=O)n3C)c1 | -25
CC(C(=O)Nc1ccccn1)(c1ccccc1)c1ccccc1.Cl | 0.974
COc1ccc(/C(N)=N/OC(=O)CCC2CCCC2)cc1OC | 1.46
CC(=O)NCCNC(=O)c1cccc(NS(=O)(=O)c2ccc3c(c2)OCCO3)c1 | -2.65
CCc1cc2ccc(C)c(C)c2nc1SCC(=O)NNC(=O)c1ccco1 | 11.8
COc1ccc(/C=C2\Sc3ccc(C(=O)NCC4CCCO4)cc3N(C)C2=O)cc1 (centres unmarked) | 2.24
CC(C)CC(=O)Nc1nnn(C)n1 | -1.5
CCN(CC)CCCNC(=O)c1cc(-c2ccccc2)c(N2CCCCC2)s1 | -51.7
COc1ccc(C(CC(=O)Nc2cc(OC)cc(OC)c2)n2cccc2)cc1 (centres unmarked) | 2.58
COc1ccc(Cl)cc1NC(=O)C/C(C)=N/NC(=O)c1ccccc1Cl | 19.6
O=C(O)c1ccc(NC(=S)NCc2ccccc2)cc1 | 13.5
Cc1nn(Cc2cccc(F)c2)c(C)c1NC(=O)c1c([N+](=O)[O-])c(C)nn1C | -9.72
Cc1sc(NC(=O)CSc2nc(O)cc(=O)[nH]2)nc1-c1ccccc1 | 9.36
O=C1NC(NS(=O)(=O)c2ccccc2)(C(F)(F)F)C(=O)N1Cc1cccnc1 (centres unmarked) | 2.31
Cc1ccc(S(=O)(=O)NCc2cccnc2)s1 | 1.72
O=C(Nc1ccc(Cl)cc1Cl)c1n[nH]c(Cn2cncn2)n1 | 1.48

Structure (SMILES) | hERG current change (%, negative = inhibition) at 10uM [%]
CCCCCN=Cc1c(C)[nH]n(-c2nc3ccccc3s2)c1=O | -65.5
Cc1ccccc1-n1ncc2c(SCC(=O)N3c4ccccc4CC3C)ncnc21 (centres unmarked) | -1.9
Cc1nc2nc3c(c(=O)n2[nH]1)CCCC3 | 1.21
O=C(NCCc1c[nH]c2ccc(Cl)cc12)c1ccc([N+](=O)[O-])cc1 | 6.57
O=C(CCN1C(=O)c2ccccc2C1=O)Nc1ccc2c(c1)OCCO2 | 4.36
COC(=O)Cc1[nH]nc2c1C1(C(=O)N(Cc3ccccc3)c3ccccc31)C(C#N)=C(N)O2 (centres unmarked) | -16.6
Cc1ccc(P(=O)(CO)c2ccc(C)cc2)cc1 | -0.463
COc1cccc2c3c(c(=O)[nH]c12)CC(C)(C)O3 | 4.46
CN(CC(=O)Nc1ccc(F)cc1)C(=O)COC(=O)CNC(=O)c1sc2ccccc2c1Cl | 15.5
Fc1ccccc1/C=C1\CCCC2=C1Nc1ncnn1C2c1ccccc1F (centres unmarked) | -25.7
COc1ccc2oc(C(=O)c3ccccc3)c(NC(=O)CN3CCN(C)CC3)c2c1 | -59.8
NC(=O)C(=O)N/N=C/c1c(F)c(F)c(F)c(F)c1F | 15.5
CN1CCN(CCCNC(=O)c2ccc(/C=C3\Oc4ccccc4N(Cc4ccc(Cl)cc4)C3=O)cc2)CC1 | -1.51
Cc1ccc(S(=O)(=O)N(C)C)cc1NC(=S)N(CCC#N)Cc1cccnc1 | -10.3
O=c1cc(O)c(-c2cccc(Cl)c2)c(Cl)[nH]1 | 12
C=CCn1cc(/C=C2/NC(=O)NC2=O)c2ccccc21 | 18
CN(C)S(=O)(=O)c1cccc(NC(=O)CSc2nc3ccccc3[nH]2)c1 | -22.2
CN(C)C1N(C(=O)c2ccccc2)N=C2c3ccccc3S(=O)(=O)N21 (centres unmarked) | 11.3
